Source: article PMC4336329 (PLoS ONE, 2015)
Out of some 310,000 compounds screened, about 14,000 (4.5%) showed an effect of 50% or more. Effects have a minus sign here. This is one part of the list.

These compounds were tested against human ether-à-go-go-related gene (hERG) potassium channel (human, UniProt Q12809) (assay: primary screen, population patch clamp on CHO cells stably expressing hERG).
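Further: peak tail current of the secondary pulse compared with the same well before compound.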

Sequence of human ether-à-go-go-related gene (hERG) potassium channel (Q12809 whole entry, looked up): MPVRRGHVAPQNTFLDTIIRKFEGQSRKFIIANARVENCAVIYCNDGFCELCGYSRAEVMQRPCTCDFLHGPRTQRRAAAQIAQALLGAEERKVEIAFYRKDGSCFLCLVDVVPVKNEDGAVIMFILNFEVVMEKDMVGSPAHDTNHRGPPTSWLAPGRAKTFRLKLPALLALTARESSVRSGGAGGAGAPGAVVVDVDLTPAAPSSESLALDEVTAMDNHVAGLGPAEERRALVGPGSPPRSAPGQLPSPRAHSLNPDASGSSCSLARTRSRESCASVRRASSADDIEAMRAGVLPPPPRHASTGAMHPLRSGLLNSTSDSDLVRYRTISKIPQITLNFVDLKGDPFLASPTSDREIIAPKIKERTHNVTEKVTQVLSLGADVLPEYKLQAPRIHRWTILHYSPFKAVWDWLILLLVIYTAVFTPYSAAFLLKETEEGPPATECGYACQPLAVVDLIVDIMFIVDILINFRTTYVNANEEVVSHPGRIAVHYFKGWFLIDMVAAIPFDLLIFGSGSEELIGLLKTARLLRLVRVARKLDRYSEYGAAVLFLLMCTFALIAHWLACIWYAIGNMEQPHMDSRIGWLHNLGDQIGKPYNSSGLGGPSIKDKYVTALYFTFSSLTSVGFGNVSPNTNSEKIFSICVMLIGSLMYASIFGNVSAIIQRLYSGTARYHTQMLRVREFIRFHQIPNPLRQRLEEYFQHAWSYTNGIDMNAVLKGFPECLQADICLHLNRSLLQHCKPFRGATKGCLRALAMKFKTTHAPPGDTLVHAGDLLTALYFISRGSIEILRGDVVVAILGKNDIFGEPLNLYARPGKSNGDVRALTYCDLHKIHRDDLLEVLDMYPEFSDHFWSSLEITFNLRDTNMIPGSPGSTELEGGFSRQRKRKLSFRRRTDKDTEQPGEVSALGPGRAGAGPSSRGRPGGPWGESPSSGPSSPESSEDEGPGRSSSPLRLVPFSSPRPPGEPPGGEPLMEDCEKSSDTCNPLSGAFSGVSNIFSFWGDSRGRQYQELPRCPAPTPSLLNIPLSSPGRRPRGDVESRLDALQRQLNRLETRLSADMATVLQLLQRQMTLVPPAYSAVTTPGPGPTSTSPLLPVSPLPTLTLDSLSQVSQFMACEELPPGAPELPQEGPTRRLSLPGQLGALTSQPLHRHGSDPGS

| SMILES | hERG current change (%, negative = inhibition) at 10uM |
| --- | --- |
| COc1ccc(C(=O)Nc2sc3c(c2C(=O)O)CC(C)(C)OC3)cc1 | -2.18% |
| O=C1C=C(c2ccccc2)CCC1 | 19.9% |
| Cc1nc2c(C#N)c(C)[nH]n2c(=O)c1Cc1ccccc1 | 14.2% |
| CCSc1nc2cc(C(=O)OC)ccc2c(=O)n1CC | 0.198% |
| CCOC(=O)c1c(C)[nH]c(C(=O)OCC(=O)N2CCc3ccccc32)c1C | 18% |
| O=C(N/N=C/c1ccncc1)c1cc(C2CC2)nc2ccccc12 | -7.52% |
| C#CCOCCOCCOCCNc1nc(N2CCN(C(=O)CCCCCCCCCCNC(=O)Cn3cc(C[C@@H](C)O)nn3)CC2)nc(N2CCN(C(=O)CCCCCCCCCCNC(=O)[C@H](CO)n3cc(CCCSC)nn3)CC2)n1 | 1.59% |
| NC(=O)c1cccc([N+](=O)[O-])c1 | 5.64% |
| CCc1ccccc1NS(=O)(=O)c1ccc2c(c1)C(C)(C)C(=O)N2C | -7.66% |
| O=C(Nc1ccc(OCC(=O)N2CCN(S(=O)(=O)c3ccccc3)CC2)cc1)c1ccco1 | 4.9% |
| CCCC12CN(C(=O)c3ccc([N+](=O)[O-])cc3)CC(C)(CN(C(=O)c3ccc([N+](=O)[O-])cc3)C1)C2=O | -14.5% |
| Cc1ccc(CNCC(O)(c2ccc(F)cc2)c2ccc(F)cc2)cc1 | -56.4% |
| Cc1ccc(NS(=O)(=O)c2ccc3c(c2)NC(=O)CO3)c(C)c1 | 19% |
| N#CCCn1ncn(-c2ccccc2)c1=S | 1.22% |
| COc1cccc(/C=C2\SC(=S)N(CCC(=O)NCCc3ccc(O)cc3)C2=O)c1 | 3.18% |
| Cc1ccc(-c2csc(NC(=O)c3ccc4c(=O)n5c(nc4c3)CCCCC5)n2)cc1 | -6.65% |
| COc1cc(NC(=O)c2ccccc2-c2ccccc2)cc(OC)c1OC | 4.85% |
| CC(C)(C)c1csc(NC(=O)C2=COCCO2)n1 | -2.05% |
| CC1=NN(C(C#N)c2ccc(F)cc2)C(c2ccccc2)C1 (centres unmarked) | 4.44% |

| SMILES | hERG current change (%, negative = inhibition) at 10uM |
| --- | --- |
| CC1(C)Cc2c(sc3[nH]c(=S)[nH]c(=O)c23)CO1 | -10.7% |
| Cl.OC(c1ccccc1)(c1ccccc1)C1CCCN1 (centres unmarked) | -2.08% |
| S=c1[nH]cc(-c2ccccc2)n1-c1cccc(Cl)c1 | 2.26% |
| Cc1nnc(N/N=C/c2ccc(O)c([N+](=O)[O-])c2)[nH]c1=O | 9.29% |
| COc1ccc(NC(=O)CSc2nnc(Cc3ccccc3)c(=O)n2N)cc1 | 3.47% |
| Cc1ccc(NS(=O)(=O)c2cccc3nsnc23)cc1[N+](=O)[O-] | 4.77% |
| CCCC1=C(C(=O)OCC)C(c2ccc(OC)c(C)c2OC)C(C#N)=C(N)O1 (centres unmarked) | -3.01% |
| Cc1noc(C)c1COC(=O)Cc1ccc(Br)cc1 | 11.6% |
| COC(=O)c1nc(-c2ccccc2)n[nH]1 | -5.5% |
| CCOc1cccc(CNC2CN3CCC2CC3)c1.Cl (centres unmarked) | 3.13% |
| CCN(CC)C(=O)CC(c1ccc(N(C)C)cc1)c1c(OC)cc(OC)c2c(-c3ccccc3)cc(=O)oc12 (centres unmarked) | 5.07% |
| CCOc1ccc(-n2ccnc2SCC(=O)Nc2nnc(C)s2)cc1 | -5.56% |
| Cc1ccc(C)c(N2N=C(C(=O)Nc3cccc(S(=O)(=O)N4CCCCC4)c3)CCC2=O)c1 | -17.6% |
| COc1ccc(Cl)cc1Nc1nc(C)cc(=O)[nH]1 | 1.61% |
| O=C(NCN1C(=O)C2C3C=CC(C3)C2C1=O)Nc1ccccn1 (centres unmarked) | 9.67% |
| Cc1cc(C)c2oc(C(=O)Nc3ccc(S(=O)(=O)N4CCCC(C)C4)cc3)cc(=O)c2c1 (centres unmarked) | 6.59% |
| COc1cccc2c1OCC/C2=N\NC(=O)COc1ccc(C)cc1 | 11.6% |
| COc1cccc(C(=O)N(Cc2cc3cc(C)ccc3[nH]c2=O)C(C)C)c1 | -11.2% |
| CCNC(=O)C(=O)NCCC1CCCCN1S(=O)(=O)c1cccs1 (centres unmarked) | 3.49% |

| SMILES | hERG current change (%, negative = inhibition) at 10uM |
| --- | --- |
| CCC(C)[C@H](NC(=O)c1cc2cc(Cl)ccc2n1C)C(=O)N1CCC[C@H]1C(=O)O (some centres unmarked) | 16.5% |
| CCOC(=O)C1CCN(CC(=O)Nc2c(C(=O)OC)[nH]c3cccc(C)c23)CC1 | -2.56% |
| CCOC(=O)/C=C/C(=O)OCC(=O)Nc1ccc(C)cc1 | 11.4% |
| COc1ccc(S(=O)(=O)N2CCOCC2)cc1NC(=O)CCc1c[nH]c2ccccc12 | -13.1% |
| Cc1cc(C)c(S(=O)(=O)N2CCCC(C(=O)NCCC3=CCCCC3)C2)c(C)c1 (centres unmarked) | 5.38% |
| Cc1cccc(C(=O)NCCCNC(=O)c2ccco2)c1 | 11.5% |
| Cc1ccccc1Nc1c(C)c(C)nc2ncnn12 | 20.2% |
| N#CC(C(=O)Nc1ccccc1)=C1Nc2ccccc2N1 | 10.8% |
| Cc1cc(NC(=O)COC(=O)Cn2c(C)csc2=O)ccc1Br | -6.11% |
| O=C(c1ccco1)N1CCN(C(=O)c2[nH]ncc2[N+](=O)[O-])CC1 | -1.8% |
| COc1ccccc1N1CCN(C(CNS(=O)(=O)c2ccccc2)c2cccnc2)CC1 (centres unmarked) | -7.98% |
| COC(=O)c1cn(C(=O)c2ccccc2F)nc1N | -5.96% |
| C=C(c1cccc2ccccc12)P(=O)(O)O | 2.83% |
| O=C(CSc1nc2ncc(Br)cc2[nH]1)c1ccc([N+](=O)[O-])cc1 | -66.9% |
| COCCn1c(SC(C)C(=O)NCC2CCCO2)nc2scc(-c3ccc(F)cc3)c2c1=O (centres unmarked) | -66.5% |
| COc1cccc(/C=C/C(=O)c2cccc([N+](=O)[O-])c2)c1 | -3.45% |
| CC(=O)/C(=N\Nc1ccccc1)Sc1nncn1C | 6.79% |
| CCOC(=O)c1sc(Nc2nc3c(F)cccc3s2)cc1C | 7.62% |
